In the supplement of paper PMC8728848:
The list shows a part of the results.

How the values were obtained:
Test in all cases: glycan array binding signal (z-score within array); higher = stronger binding
Conditions in all cases: glycan notation: IUPAC condensed, linker removed
[1] = biological target: GlcNAc(b1-3)GalNAc
In short: (§1)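 Columns mapping to the same glycan were averaged after glycan names were converted to IUPAC-condensed notation. The data come from 3228 arrays in the Consortium for Functional Glycomics database, limited to those with an available protein sequence. Binding is reported as a within-array Z-score averaged across arrays of one protein sequence and across linkers.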

[2] = biological target: GlcNAc(b1-3)Man
In short: as §1

[3] = biological target: GlcNAc(b1-3)[GlcNAc(b1-4)][GlcNAc(b1-6)]GlcNAc
In short: as §1

[4] = biological target: GlcNAc(b1-3)[GlcNAc(b1-6)]Gal(b1-4)GlcNAc
In short: as §1

[5] = biological target: GlcNAc(b1-3)[GlcNAc(b1-6)]GalNAc
In short: as §1

[6] = biological target: GlcNAc(b1-4)Gal(b1-4)GlcNAc
In short: as §1

[7] = biological target: GlcNAc(b1-4)GlcNAc
In short: as §1

[8] = biological target: GlcNAc(b1-4)GlcNAc(b1-4)GlcNAc
In short: as §1

[9] = biological target: GlcNAc(b1-4)GlcNAc(b1-4)GlcNAc(b1-4)GlcNAc(b1-4)GlcNAc
In short: as §1

[10] = biological target: GlcNAc(b1-4)GlcNAc(b1-4)GlcNAc(b1-4)GlcNAc(b1-4)GlcNAc(b1-4)GlcNAc
In short: as §1

[11] = biological target: GlcNAc(b1-4)[GlcNAc(b1-6)]GalNAc
In short: as §1

[12] = biological target: GlcNAc(b1-6)Gal(b1-4)GlcNAc
In short: as §1

[13] = biological target: GlcNAc(b1-6)GalNAc
In short: as §1

[14] = biological target: GlcNAc6S(b1-3)Gal(b1-4)GlcNAc
In short: as §1

[15] = biological target: Kdn(a2-3)Gal(b1-3)GalNAc
In short: as §1

[16] = biological target: Kdn(a2-3)Gal(b1-3)GlcNAc
In short: as §1

[17] = biological target: Kdn(a2-3)Gal(b1-4)Glc
In short: as §1

[18] = biological target: Kdn(a2-3)Gal(b1-4)GlcNAc
In short: as §1

[19] = biological target: Kdn(a2-3)Gal(b1-4)[Fuc(a1-3)]GlcNAc
In short: as §1

[20] = biological target: Kdn(a2-6)Gal(b1-4)GlcNAc
In short: as §1

[21] = biological target: Man(a1-2)Man(a1-2)Man(a1-3)Man
In short: as §1

[22] = biological target: Man(a1-2)Man(a1-2)Man(a1-6)[Man(a1-3)]Man
In short: as §1

[23] = biological target: Man(a1-2)Man(a1-3)Man
In short: as §1

[24] = biological target: Man(a1-2)Man(a1-3)[Man(a1-2)Man(a1-6)]Man
In short: as §1

[25] = biological target: Man(a1-2)Man(a1-3)[Man(a1-2)Man(a1-6)]Man(a1-6)[Man(a1-2)Man(a1-2)Man(a1-3)]Man
In short: as §1

[26] = biological target: Man(a1-2)Man(a1-3)[Man(a1-2)Man(a1-6)]Man(a1-6)[Man(a1-2)Man(a1-2)Man(a1-3)]Man(b1-4)GlcNAc(b1-4)GlcNAc
In short: as §1

[27] = biological target: Man(a1-2)Man(a1-3)[Man(a1-6)]Man(a1-6)[Man(a1-2)Man(a1-3)]Man(b1-4)GlcNAc(b1-4)GlcNAc
In short: as §1

[28] = biological target: Man(a1-2)Man(a1-6)[Man(a1-3)]Man(a1-6)[Man(a1-2)Man(a1-2)Man(a1-3)]Man
In short: as §1

[29] = biological target: Man(a1-2)Man(a1-6)[Man(a1-3)]Man(a1-6)[Man(a1-2)Man(a1-2)Man(a1-3)]Man(b1-4)GlcNAc(b1-4)GlcNAc
In short: as §1

[30] = biological target: Man(a1-3)[Man(a1-6)]Man
In short: as §1

[31] = biological target: Man(a1-3)[Man(a1-6)]Man(a1-6)[Man(a1-2)Man(a1-3)]Man(b1-4)GlcNAc(b1-4)GlcNAc
In short: as §1

[32] = biological target: Man(a1-3)[Man(a1-6)]Man(a1-6)[Man(a1-3)]Man
In short: as §1

[33] = biological target: Man(a1-3)[Man(a1-6)]Man(a1-6)[Man(a1-3)]Man(b1-4)GlcNAc(b1-4)GlcNAc
In short: as §1

[34] = biological target: Man(a1-3)[Man(a1-6)]Man(b1-4)GlcNAc(b1-4)GlcNAc
In short: as §1

[35] = biological target: Man(a1-3)[Man(a1-6)]Man(b1-4)GlcNAc(b1-4)[Fuc(a1-6)]GlcNAc
In short: as §1

[36] = biological target: Man(a1-6)Man
In short: as §1

[37] = biological target: Man(b1-4)GlcNAc
In short: as §1

[38] = biological target: MurNAc(b1-4)GlcNAc
In short: as §1

B1: Arath Fbox (Arabidopsis thaliana), NP_178341.1 (protein)
chain: EFTWGRKRRVKSESSPFDSFPEDCISYIISFTNPRDACVAATVSKTFESTVKSDIIWEKFLPADYESLIPPSRVFSSKKELYFSLCNDPVLFDDDKKSVWLEKASGKRCLMLSAMNLSIIWGDNPQYWQWIPIPESRFEKVAKLRDVCWFEIRGRTNTRVLSPRTRYSAYIVFKGVDKCYGFQNVAIEAAVGVVGQEPSRRLICFSEAIRRGRRNVVKPKQREDGWMEIELGEFFNDGGIMDNDEIEMSALETKQLNRKCGLIIQGIEIRPAKILAAAAASFLEQKLISEEDLNSAVDHHHHHH
glycan array binding signal (z-score) [1]: -0.488
glycan array binding signal (z-score) [2]: -0.454
glycan array binding signal (z-score) [3]: -0.066
glycan array binding signal (z-score) [4]: -0.517
glycan array binding signal (z-score) [5]: -0.541
glycan array binding signal (z-score) [6]: -0.483
glycan array binding signal (z-score) [7]: -0.69
glycan array binding signal (z-score) [8]: -0.656
glycan array binding signal (z-score) [9]: -0.358
glycan array binding signal (z-score) [10]: -0.601
glycan array binding signal (z-score) [11]: -0.42
glycan array binding signal (z-score) [12]: -0.56
glycan array binding signal (z-score) [13]: -0.149
glycan array binding signal (z-score) [14]: 0.585
glycan array binding signal (z-score) [15]: -0.352
glycan array binding signal (z-score) [16]: -0.723
glycan array binding signal (z-score) [17]: 0.084
glycan array binding signal (z-score) [18]: -0.701
glycan array binding signal (z-score) [19]: 1.23
glycan array binding signal (z-score) [20]: -0.608
glycan array binding signal (z-score) [21]: -0.662
glycan array binding signal (z-score) [22]: -0.656
glycan array binding signal (z-score) [23]: -0.502
glycan array binding signal (z-score) [24]: -0.73
glycan array binding signal (z-score) [25]: -0.653
glycan array binding signal (z-score) [26]: 0.244
glycan array binding signal (z-score) [27]: -0.507
glycan array binding signal (z-score) [28]: -0.637
glycan array binding signal (z-score) [29]: -0.362
glycan array binding signal (z-score) [30]: -0.448
glycan array binding signal (z-score) [31]: -0.052
glycan array binding signal (z-score) [32]: -0.662
glycan array binding signal (z-score) [33]: 1.57
glycan array binding signal (z-score) [34]: -0.721
glycan array binding signal (z-score) [35]: -0.72
glycan array binding signal (z-score) [36]: 1.25
glycan array binding signal (z-score) [37]: -0.667
glycan array binding signal (z-score) [38]: -0.651
